# Measured values reported in PubChem BioAssay AID463173 (ICCB-Longwood Screening Facility, Harvard Medical School, 2010).
# Screen size: about 52,000 compounds; about 1,700 (3.3%) were called active. Cut-off read from the data, not from the text of the source: active = survival mostly below about 52% (no sharp cut-off); inactive = mostly above about 56%. Some of the results follow.
# System: Wild type
# Experiment: growth inhibition of S. aureus wild type versus tarO mutant, primary screen, teichoic acid synthesis inhibitors, RN4220, OD600 (AID 463173)
# Conditions: S. aureus RN4220 wild type/DeltatarO growth, OD600, 18 h, hits give low values, screened at 18.75 µg/mL (by protocol)
row,SMILES,survival
1,CN(C(=O)c1ccc2c(c1)N(Cc1ccccc1F)C(=O)c1ccccc1S2(=O)=O)C1CCCCC1,inactive: 149%
2,Cc1cc2n(n1)CCC(=O)N2Cc1ccc(C(=O)Nc2ccc(Br)c(C)c2)cc1,inactive: 71%
3,COc1ccc(CCN2CC(O)=C(c3nc4ccccc4c(=O)[nH]3)C2=N)cc1OC,inactive: 110%
4,Cc1ccc(-n2nc(C(=O)Nc3cccc(C#N)c3)c3c4ccccc4n(C)c3c2=O)cc1,inactive: 137%
5,CC1=C(C(=O)Nc2cccnc2)C(c2ccc(Cl)cc2)n2nc(SCc3ccccc3)nc2N1 (stereo not given),inactive: 73%
6,COC(=O)c1c(NC(=O)COc2c(C)ccc(C)c2C)sc2c1CCC(C)C2 (stereo not given),active: 11%
7,O=C(Cn1ncc2ccsc2c1=O)N1CCN(c2ccccc2)CC1,inactive: 75%
8,CCCSc1nc2c(c(=O)[nH]1)C(c1ccc(F)cc1F)CC(=O)N2 (stereo not given),inactive: 87%
9,O=S(=O)(Nc1cccc(-c2ccc(N3CCOCC3)nn2)c1)c1ccccc1C(F)(F)F,inactive: 80%
10,CCN(CC)c1cc2c(cc1F)c(=O)c(S(=O)(=O)c1ccc(C)cc1)cn2Cc1ccc(F)cc1,inactive: 71%
11,CCOc1ccc(NC(=O)[C@H](Cc2ccccc2)N2Cc3ccccc3C2=O)cc1,inactive: 93%
12,O=C(NCCc1ccc(Cl)cc1)c1nc(-c2cccc(F)c2)n2c1CCCCC2,inactive: 140%
13,CCCN1CCN(c2ncnc3sc(C(=O)Nc4cccc(Cl)c4C)c(C)c23)CC1,inactive: 78%
14,CC(C)c1ccccc1Oc1c(C(F)(F)F)oc2c(CN3CCN(C)CC3)c(O)ccc2c1=O,inactive: 71%
15,Cn1c(-c2ccc(S(=O)(=O)N3CCCC3)cc2)csc1=Nc1ccc(Cl)c(Cl)c1,inactive: 63%
16,CCC1CCc2nc3sc(C(=O)Nc4ccc(F)c(F)c4)c(N)c3cc2C1 (stereo not given),inactive: 91%
17,COc1ccc(NC(=O)CSc2nc3c(c(=O)[nH]2)CCC3)cc1,inactive: 80%
18,CCOC(=O)c1c(C)c(C(=O)NCc2ccc(Cl)cc2)c(C)n1CC,inactive: 93%
19,CCOc1ccccc1Nc1sc(C(=O)c2ccc(Cl)cc2)c(N)c1C(=O)NCCc1ccccc1,inactive: 87%
20,Brc1ccc(CN2CCc3nc(N4CCN(c5ncccn5)CC4)ncc3C2)cc1,inactive: 65%
21,O=C(Cn1c(=O)n(CCc2ccccc2)c(=O)c2c3c(sc21)CCCC3)Nc1ccc(F)c(F)c1,inactive: 98%
22,CCCc1nnc(NC(=O)Cc2coc3ccc(C)cc23)s1,inactive: 87%
23,Cc1ccccc1NC(=O)CSc1nc2ccccc2c2nc(CCn3c(C)nc4ccccc43)nn12,inactive: 65%
24,N#CCCCn1c(O)c(N=NC(=O)C2COc3ccccc3O2)c2ccccc21 (stereo not given),inactive: 104%
25,COc1ccc(NCc2cc3ccc(OC)cc3n(CC(=O)Nc3cccc(OC)c3)c2=O)cc1,inactive: 110%
26,Cc1ccc(CNC(=O)c2cn(C)c3ccc(S(=O)(=O)N4CCOCC4)cc3c2=O)cc1,inactive: 134%
27,COc1ccccc1N1CCN(C(=O)c2cc3c(=O)oc4ccc(C)cc4c3s2)CC1,inactive: 115%
28,CCOc1ccc(-c2nc(CNC(=O)Nc3ccccc3)c(C)o2)cc1,inactive: 99%

row,SMILES,survival
1,COc1ccc(OC)c(S(=O)(=O)Nc2cccc(-c3ccc(N4CCCCCC4)nn3)c2)c1,inactive: 81%
2,CCn1c(C(=O)N2CCC(C(=O)NCCCOC)CC2)cc2sccc21,inactive: 83%
3,COc1cc(NC(=O)c2nn(-c3ccc(F)cc3)c(=O)n(C)c2=O)cc(OC)c1OC,inactive: 140%
4,CC1Cc2ccccc2N1C(=O)CSc1nccc(=O)[nH]1 (stereo not given),inactive: 111%
5,O=C1CCCc2c1cc(C(=O)N1CCOCC1)c(=O)n2-c1ccccc1,inactive: 105%
6,Cc1cc(C)c(/C=C/c2onc(C)c2S(=O)(=O)N2CCC(C(=O)Nc3ccc(Cl)cc3C)CC2)c(C)c1,inactive: 74%
7,O=C(COCc1cc(-c2cccs2)on1)NCc1cccc(Cl)c1,inactive: 121%
8,Cn1nnc2cc(C(=O)Nc3cccnc3)ccc21,inactive: 107%
9,Cc1cn(S(=O)(=O)c2ccc(F)c(Cl)c2)cn1,inactive: 74%
10,Cc1ccccc1NC(=O)c1c(NC(=O)C(F)(F)F)sc2c1CCCCC2,active: 1%
11,Cc1ccc(C(=O)c2sc(Nc3ccc(F)cc3)nc2N)c(C)c1,inactive: 73%
12,Cc1ccc(C(=O)NC2CC3CCCC(C2)N3C(=O)NC2CCCCC2)cc1 (stereo not given),inactive: 101%
13,Cc1cc(=O)n2c([nH]c3ccccc32)c1C(=O)O,inactive: 106%
14,COc1ccc(CN(C(=O)c2ccc(CN3CCOCC3)o2)C(C(=O)NCC2CCCO2)c2ccc(F)cc2)cc1 (stereo not given),inactive: 103%
15,CC1=C(c2ccc(C)cc2)S(=O)(=O)N(Cc2ccc(C(=O)NCc3ccccc3F)cc2)C1=O,inactive: 89%
16,O=C(NC1CCCCC1)C(c1ccco1)N(Cc1ccccc1)C(=O)Cn1nnc2ccccc21 (stereo not given),inactive: 110%
17,O=C1CCCc2[nH]c(=O)c(-c3nc(-c4cccc([N+](=O)[O-])c4)cs3)cc21,inactive: 69%
18,COc1ccc(-c2nc(CNC(=O)NC3CCCCC3)c(C)o2)c(OC)c1,inactive: 67%
19,Cc1ccc2c(c1)C(C)(c1ccccc1)CC(C)(C)N2C(=O)c1ccc(F)cc1 (stereo not given),active: -2%
20,CC(=O)c1ccc(NC(=O)Cn2c(=O)oc3cc(S(=O)(=O)N4CCCCC4)ccc32)cc1,inactive: 86%
21,CCOC(=O)c1cc2c(=O)n3ccccc3nc2n(Cc2ccco2)c1=NC(=O)c1ccc(F)cc1,inactive: 79%
22,O=C(CCCn1c(=O)[nH]c2ccccc2c1=O)N1CCN(c2ccccc2)CC1,inactive: 135%
23,O=S(=O)(NCCc1cn2ccsc2n1)c1ccc(Cl)cc1,inactive: 129%
24,O=C(CN1C(=O)COc2ccc(S(=O)(=O)N3CCOCC3)cc21)N1CCN(c2ccc(Cl)cc2)CC1,inactive: 81%
25,CCCCCCc1cc2cc(-c3cn4c(n3)sc3cc(OC)ccc34)c(=O)oc2cc1O,inactive: 87%
26,Cc1ccccc1C(=O)n1nc(-c2cccnc2)nc1NCc1ccc(F)cc1,inactive: 84%
27,CCN(CCCNC(=O)Cn1ncc2c3ccccc3n(C)c2c1=O)c1cccc(C)c1,inactive: 87%
